# Assay results taken from the supplement of paper PMC10126150.
# Values marked as one replicate rest on one cluster of the flow cell; about a third of the high ones do not repeat.
# Tested on: ATP
# Assay: switch fluorescence ratio, 500 uM ATP over buffer (Cy3 cluster intensity, sum of 5 cycles each) (fold (ratio)); higher = stronger signal-on switching upon ATP binding; sequences stand for … in TCGTCGGCAGCGTCAGATGTGTATAAGAGACAGTTTTTTTTTTTTTTTTTTTTTTTTT…TC
# Settings: aptamer strand: ATP DNA aptamer (quencher-CACCTGGGGGAGTATTGCGGAGGAAGG + anchor), 100 nM annealed; ATP concentration: 500 uM; one replicate
# In short: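 After annealing to 100 nM quencher-labelled ATP aptamer, Cy3-labelled switching-strand clusters on a modified Illumina MiSeq flow-cell were imaged in selection buffer. A second image followed after 15 min with 500 uM ATP at 22 °C, and five such buffer/ATP cycles were done, each separated by NaOH stripping and re-annealing. The fluorescence ratio, averaged per switch-domain sequence, is summed target-cycle over summed buffer-cycle Cy3 intensity per cluster, with clusters outside 100-1000 RFU excluded.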
# 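Further: ATP exposure 15 min at 22 °C before imaging.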
row,Sequence,switch fluorescence ratio
1,GGGCGTCCGA,1.01
2,GGGCGTGCTT,0.975
3,GGGCTACGCG,1.02
4,GGGCTGCG,1
5,GGGCTGCGTC,0.988
6,GGGCTGGGTG,1.06
7,GGGCTGTGTA,1.02
8,GGGCTTTCA,0.969
9,GGGCTTTTCT,0.998
10,GGGGAAAACC,1.03
11,GGGGAAGATC,0.995
12,GGGGAATAG,1.02
13,GGGGACACTG,1.1
14,GGGGACCGC,1.06
15,GGGGACGATC,1.04
16,GGGGAGCG,0.922
17,GGGGATACTA,1.03
18,GGGGATCATG,1.03
19,GGGGATCGTC,0.988
20,GGGGCACCAA,1.02
21,GGGGCATGAT,1.04
22,GGGGCCTACC,1.02
23,GGGGCGACGG,0.952
24,GGGGCGGCCA,0.978
25,GGGGCGGTTG,0.94
26,GGGGCGTGAC,0.983

row,Sequence,switch fluorescence ratio
1,GGGGCTACCT,1.05
2,GGGGCTAGGA,0.966
3,GGGGCTATGA,0.974
4,GGGGCTCCCA,1.2
5,GGGGCTCCCG,0.974
6,GGGGCTCTCA,1.02
7,GGGGCTGCCT,1.07
8,GGGGGAGAAG,0.962
9,GGGGGAGCGC,0.939
10,GGGGGCATA,0.973
11,GGGGGCCAAT,1.02
12,GGGGGCCCAA,0.983
13,GGGGGCCTGA,1.01
14,GGGGGCCTT,1.01
15,GGGGGCGTT,1.02
16,GGGGTCGGAT,0.99
17,GGGGTCTATA,0.946
18,GGGGTCTGTT,1.01
19,GGGGTCTTTG,0.962
20,GGGGTGTAAA,1.04
21,GGGGTTGATC,0.975
22,GGGTAAGTAG,1.03
23,GGGTACCCCC,1.05
24,GGGTACTCGA,0.994
25,GGGTAGAGAT,0.994
26,GGGTAGGAGC,1.03

row,Sequence,switch fluorescence ratio
1,GGGTAGGATG,0.981
2,GGGTAGGTTC,1.08
3,GGGTATTTGA,1.01
4,GGGTCACTGT,0.973
5,GGGTCCA,0.997
6,GGGTCCCGTT,1.02
7,GGGTCGAAGC,0.951
8,GGGTCGTCTA,0.961
9,GGGTGCCAGC,1.02
10,GGGTGCCGAA,1.11
11,GGGTGCCGCA,1.02
12,GGGTGCGGGG,1.02
13,GGGTGCGTGG,1.01
14,GGGTGGAGGT,1.02
15,GGGTGGCGT,1.02
16,GGGTGTAACG,0.972
17,GGGTGTATTA,0.992
18,GGGTGTCATC,0.972
19,GGGTGTGCCC,0.973
20,GGGTTACCCG,0.988
21,GGGTTACGTC,1.01
22,GGGTTCCAGC,1.01
23,GGGTTCGAGA,0.986
24,GGGTTCGTGC,1.01
25,GGGTTCTTGG,0.955
26,GGGTTCTTTT,1.03

row,Sequence,switch fluorescence ratio
1,GGGTTGAT,0.987
2,GGGTTGCCCG,0.956
3,GGGTTGCGCG,0.994
4,GGGTTGGGCA,1.01
5,GGGTTTCTCA,1
6,GGGTTTGCTC,1.02
7,GGGTTTGGG,1
8,GGTAAAATGG,1.03
9,GGTAAAGAAC,0.961
10,GGTAAATG,1.04
11,GGTAACTACG,1.09
12,GGTAACTAGA,1
13,GGTAACTGCA,1.06
14,GGTAATTAAT,1.48
15,GGTACAAAGC,0.979
16,GGTACAGCCG,1.02
17,GGTACAGCTC,1.02
18,GGTACATCTA,0.989
19,GGTACCATAA,0.982
20,GGTACCGTAA,1.08
21,GGTACGGAGC,1.06
22,GGTACTGTAC,1.42
23,GGTACTTTAG,1.02
24,GGTAGAACGG,0.972
25,GGTAGCCTGT,1.04
26,GGTAGCGTGA,1.02

row,Sequence,switch fluorescence ratio
1,GGTAGCTCTC,1.06
2,GGTAGGCTTG,0.999
3,GGTAGTAAA,1
4,GGTAGTCGCT,0.999
5,GGTAGTTATT,0.995
6,GGTATAAACG,1.01
7,GGTATACACC,0.967
8,GGTATAGACT,0.984
9,GGTATATAGC,1.03
10,GGTATATATT,1.01
11,GGTATCGGGC,1.01
12,GGTATCTCCA,1.01
13,GGTATCTCCG,1.04
14,GGTATGGCGG,0.978
15,GGTATTAACG,0.999
16,GGTATTCTGG,0.912
17,GGTATTGGTG,0.972
18,GGTCAAAGAC,0.992
19,GGTCAAATCC,0.994
20,GGTCACTAG,0.979
21,GGTCACTTT,0.993
22,GGTCAGACCG,1.03
23,GGTCAGGATG,1.08
24,GGTCAGGGAT,1.01
25,GGTCAGGTAC,1.05
26,GGTCAGGTGG,0.992

row,Sequence,switch fluorescence ratio
1,GGTCATCCCC,1.04
2,GGTCATTCGA,0.991
3,GGTCCATGTC,0.926
4,GGTCCCCCAT,1.07
5,GGTCCGGAGG,1
6,GGTCCGGGCA,0.98
7,GGTCCTACAC,1.11
8,GGTCGACAG,0.952
9,GGTCGATGTC,1.14
10,GGTCGGAGTT,1.03
11,GGTCGGCAGC,0.982
12,GGTCGTACAT,0.95
13,GGTCGTTTAA,1.01
14,GGTCTAACAG,0.993
15,GGTCTAATAG,0.984
16,GGTCTATTGG,0.958
17,GGTCTCATAC,1.04
18,GGTCTGCGAT,1.19
19,GGTCTGGATT,0.953
20,GGTCTTAGCG,0.969
21,GGTCTTATTT,0.983
22,GGTCTTGTCA,1.01
23,GGTCTTTACG,0.979
24,GGTGAAATGA,1.03
25,GGTGAACCAG,0.967
26,GGTGACGGCG,0.999

row,Sequence,switch fluorescence ratio
1,GGTGACTTGT,0.995
2,GGTGAGGGGC,0.948
3,GGTGAGGTAC,1.03
4,GGTGAGGTGG,0.995
5,GGTGAGTGGT,0.992
6,GGTGATATAC,1.08
7,GGTGATCCAC,0.994
8,GGTGATGGCT,0.889
9,GGTGCACCTT,0.996
10,GGTGCAGAAG,1
11,GGTGCATAG,1.05
12,GGTGCCCTCC,1.13
13,GGTGCCCTGA,1.04
14,GGTGCGTCCC,0.982
15,GGTGCTCGTG,1
16,GGTGGAACCC,0.961
17,GGTGGAAGGC,0.981
18,GGTGGAAGTC,0.962
19,GGTGGACGCG,1
20,GGTGGAGAAC,0.99
21,GGTGGAGGTC,0.989
22,GGTGGCATAC,2.29
23,GGTGGCGATG,0.983
24,GGTGGCTAAA,0.967
25,GGTGGCTGAG,1.01
26,GGTGGGCATA,1

row,Sequence,switch fluorescence ratio
1,GGTGGGCGTG,0.994
2,GGTGGGGCG,0.991
3,GGTGGGGCGG,0.952
4,GGTGGGTCAT,1.06
5,GGTGGTAGAG,1.01
6,GGTGGTCG,1.15
7,GGTGGTGAGA,0.976
8,GGTGGTGCCC,0.998
9,GGTGGTGCGC,0.976
10,GGTGTATCGA,1.01
11,GGTGTATGCA,0.965
12,GGTGTCACCA,1.04
13,GGTGTCACTG,0.993
14,GGTGTCCGCC,1
15,GGTGTCTTGG,0.976
16,GGTGTGTAGG,1.01
17,GGTGTTCGC,0.957
18,GGTGTTGTAC,0.974
19,GGTGTTTAAA,0.949
